# Measured values as given in PMC6555819.
# The other results are listed elsewhere or left out.
# How the values were obtained:
# PXR (Homo sapiens) = biological target: T1, PXR (Homo sapiens) (UniProt O75469); conditions: 270 nM, no RXRa, PBS pH 7.4, 2% milk, 0.02% Triton X-100, 1 mM DTT, BSA, 0.4 mg/ml salmon testes DNA; double strand, one strand shown
# T1 sequence: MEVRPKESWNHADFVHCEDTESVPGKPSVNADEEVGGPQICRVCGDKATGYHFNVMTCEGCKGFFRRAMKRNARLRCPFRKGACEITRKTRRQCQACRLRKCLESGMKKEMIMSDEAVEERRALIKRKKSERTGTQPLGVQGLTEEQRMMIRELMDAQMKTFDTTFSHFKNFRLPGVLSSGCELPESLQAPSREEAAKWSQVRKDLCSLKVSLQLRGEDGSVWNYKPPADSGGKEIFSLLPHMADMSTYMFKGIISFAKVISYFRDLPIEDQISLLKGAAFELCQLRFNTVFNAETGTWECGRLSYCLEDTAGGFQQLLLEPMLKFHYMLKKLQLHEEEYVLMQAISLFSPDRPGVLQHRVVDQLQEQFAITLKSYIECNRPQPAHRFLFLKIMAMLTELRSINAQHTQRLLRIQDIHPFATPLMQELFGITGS
# RARa (Homo sapiens) = biological target: T2, RARa (Homo sapiens) (UniProt P10276); conditions: 270 nM, no RXRa, PBS pH 7.4, 2% milk, 0.02% Triton X-100, 1 mM DTT, BSA, 0.4 mg/ml salmon testes DNA; double strand, one strand shown
# T2 sequence: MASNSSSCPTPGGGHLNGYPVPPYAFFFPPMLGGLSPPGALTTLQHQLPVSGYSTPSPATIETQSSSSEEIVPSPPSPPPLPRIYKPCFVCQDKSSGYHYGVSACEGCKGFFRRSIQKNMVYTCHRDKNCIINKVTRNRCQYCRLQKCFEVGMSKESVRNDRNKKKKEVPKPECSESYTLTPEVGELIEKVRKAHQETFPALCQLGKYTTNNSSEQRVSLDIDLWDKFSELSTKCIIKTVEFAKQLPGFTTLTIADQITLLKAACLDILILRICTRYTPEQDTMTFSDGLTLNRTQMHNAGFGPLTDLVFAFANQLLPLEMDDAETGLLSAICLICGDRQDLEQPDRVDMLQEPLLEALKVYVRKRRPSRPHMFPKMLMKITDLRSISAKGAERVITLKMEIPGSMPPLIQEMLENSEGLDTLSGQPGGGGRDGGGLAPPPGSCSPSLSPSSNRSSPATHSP
# PPARg (Homo sapiens) = PPARg (Homo sapiens) (UniProt P37231); conditions: 180 nM, no RXRa, PBS pH 7.4, 2% milk, 0.02% Triton X-100, 1 mM DTT, BSA, 0.4 mg/ml salmon testes DNA; double strand, one strand shown
# RARb (Homo sapiens) = biological target: T3, RARb (Homo sapiens) (UniProt P10826); conditions: 270 nM, no RXRa, PBS pH 7.4, 2% milk, 0.02% Triton X-100, 1 mM DTT, BSA, 0.4 mg/ml salmon testes DNA; double strand, one strand shown
# T3 sequence: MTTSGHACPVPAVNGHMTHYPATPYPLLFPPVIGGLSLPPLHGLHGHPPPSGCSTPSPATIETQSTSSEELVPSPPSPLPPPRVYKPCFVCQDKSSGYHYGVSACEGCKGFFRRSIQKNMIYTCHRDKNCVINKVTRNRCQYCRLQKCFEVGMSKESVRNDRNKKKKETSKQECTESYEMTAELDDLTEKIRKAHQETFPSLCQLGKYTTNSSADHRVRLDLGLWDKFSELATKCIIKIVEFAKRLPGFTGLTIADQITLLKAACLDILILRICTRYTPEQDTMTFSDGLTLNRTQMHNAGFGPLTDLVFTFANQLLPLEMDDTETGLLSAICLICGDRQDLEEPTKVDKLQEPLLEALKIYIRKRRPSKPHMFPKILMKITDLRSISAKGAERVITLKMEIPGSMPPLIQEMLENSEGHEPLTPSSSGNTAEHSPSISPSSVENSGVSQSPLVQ
# VDR (Homo sapiens) = biological target: T4, VDR (Homo sapiens) (UniProt P11473); conditions: 270 nM, no RXRa, PBS pH 7.4, 2% milk, 0.02% Triton X-100, 1 mM DTT, BSA, 0.4 mg/ml salmon testes DNA; double strand, one strand shown
# T4 sequence: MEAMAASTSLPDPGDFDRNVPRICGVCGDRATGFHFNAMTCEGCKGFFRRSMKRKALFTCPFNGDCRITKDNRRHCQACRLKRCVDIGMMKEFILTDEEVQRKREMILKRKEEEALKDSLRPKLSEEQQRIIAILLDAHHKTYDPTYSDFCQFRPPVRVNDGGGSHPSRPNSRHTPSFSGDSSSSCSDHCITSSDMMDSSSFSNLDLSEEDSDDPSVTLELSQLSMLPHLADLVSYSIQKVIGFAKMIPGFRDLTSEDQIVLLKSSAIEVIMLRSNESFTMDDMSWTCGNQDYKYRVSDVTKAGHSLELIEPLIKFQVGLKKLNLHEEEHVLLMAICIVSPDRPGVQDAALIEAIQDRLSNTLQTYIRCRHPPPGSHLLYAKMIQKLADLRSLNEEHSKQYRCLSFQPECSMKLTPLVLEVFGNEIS
# Chain of UniProt P37231 (P37231 29-505): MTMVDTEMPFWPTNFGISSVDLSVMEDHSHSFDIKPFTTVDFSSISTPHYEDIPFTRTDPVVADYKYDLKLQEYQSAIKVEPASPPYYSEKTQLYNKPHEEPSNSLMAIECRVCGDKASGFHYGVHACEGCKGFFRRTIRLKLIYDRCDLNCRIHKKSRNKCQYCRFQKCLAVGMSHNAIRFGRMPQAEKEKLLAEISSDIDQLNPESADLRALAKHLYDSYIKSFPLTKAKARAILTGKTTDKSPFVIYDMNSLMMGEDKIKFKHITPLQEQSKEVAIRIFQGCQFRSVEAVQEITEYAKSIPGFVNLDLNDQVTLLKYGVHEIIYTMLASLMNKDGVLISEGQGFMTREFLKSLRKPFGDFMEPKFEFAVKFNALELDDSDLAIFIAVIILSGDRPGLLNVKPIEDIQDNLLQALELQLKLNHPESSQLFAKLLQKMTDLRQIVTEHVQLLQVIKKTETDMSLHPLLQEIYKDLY
sequence,measurement,setting,value
GCAGCTCCACTTCATGCCAGGCCTGGGCTAGAGGCTGCGATTGACAGCGTAGAATGAAGG,binding signal (PBM z-score against 500 random probes),PXR (Homo sapiens),-0.72
GCGCCTCCTTCTTTCCTTTGTCATCTGGTGGTGGGAGCGATTGACAGCGTAGAATGAAGG,binding signal (PBM z-score against 500 random probes),RARa (Homo sapiens),0.14
GCTCACCGTGTTAGCCAGGATGGTCTCAATCTCCTGGCGATTGACAGCGTAGAATGAAGG,binding signal (PBM z-score against 500 random probes),RARa (Homo sapiens),-0.8
GCCACACCCAGCCTTAGGCATAGTGGCTCATGGTAGGCGATTGACAGCGTAGAATGAAGG,binding signal (PBM z-score against 500 random probes),PPARg (Homo sapiens),-0.58
same,binding signal (PBM z-score against 500 random probes),RARb (Homo sapiens),-0.92
GCTATAGGAAGCAGGATGTTTCTTGAGAGTGTGGCCGCGATTGACAGCGTAGAATGAAGG,binding signal (PBM z-score against 500 random probes),RARa (Homo sapiens),-0.69
GCGGGAGGGCACAGTAAGCACACTGAGCCCTTCCGGGCGATTGACAGCGTAGAATGAAGG,binding signal (PBM z-score against 500 random probes),PXR (Homo sapiens),0.13
GCTTCCAGAATCAGACAATCACTGGGCTTGAACCAGGCGATTGACAGCGTAGAATGAAGG,binding signal (PBM z-score against 500 random probes),PXR (Homo sapiens),-0.24
same,binding signal (PBM z-score against 500 random probes),RARb (Homo sapiens),-0.43
GCCTCAGGCTGAGTTGTGGTAGTGTAATCATAGCTCGCGATTGACAGCGTAGAATGAAGG,binding signal (PBM z-score against 500 random probes),PXR (Homo sapiens),-0.4
same,binding signal (PBM z-score against 500 random probes),RARa (Homo sapiens),-0.24
same,binding signal (PBM z-score against 500 random probes),RARb (Homo sapiens),-0.59
GCCAGTGATGCACACCTGTAACCCTAGCACTTTGGGGCGATTGACAGCGTAGAATGAAGG,binding signal (PBM z-score against 500 random probes),PXR (Homo sapiens),-0.32
GCGACTCAGACACTGCTGGCACCCGACACTGCTCTCGCGATTGACAGCGTAGAATGAAGG,binding signal (PBM z-score against 500 random probes),PXR (Homo sapiens),-0.03
same,binding signal (PBM z-score against 500 random probes),RARb (Homo sapiens),-0.21
same,binding signal (PBM z-score against 500 random probes),VDR (Homo sapiens),-0.32
GCGGTGTCGTGTGCCTGTGATCCCAGCTACGCAGGCGCGATTGACAGCGTAGAATGAAGG,binding signal (PBM z-score against 500 random probes),PXR (Homo sapiens),-0.19
same,binding signal (PBM z-score against 500 random probes),RARb (Homo sapiens),-0.1
same,binding signal (PBM z-score against 500 random probes),VDR (Homo sapiens),-0.1
